Reference: PMC10073126, “Levosimendan inhibits disulfide tau oligomerization and ameliorates tau pathology in Tau^P301L-BiFC mice” (Experimental & Molecular Medicine, 2023)

Biological target: the molecule itself
Assay: non-reducing SDS-PAGE with tau immunoblot (disulfide-linked oligomers); cell or brain lysates in Laemmli buffer without BME, 10 ug on 10% SDS-PAGE, anti-tau immunoblot; cells basal or treated with tauK18^P301L or forskolin and MB, LMTM or levosimendan; mice given vehicle, LMTM or levosimendan

B1: tau of primary hippocampal neurons (rat) (natural protein)
chain: not shown
notes: endogenous tau of rat neurons; also called tau in primary neurons; source: endogenous, lysate of primary hippocampal neurons from Day 18 embryonic Sprague-Dawley rats
- fold level of disulfide-linked oligomers (tauK18^P301L against basal): 1.8 fold
- ratio of disulfide-linked oligomers to monomers (basal): 2.4 fold
